From PubChem BioAssay AID1768 (National Center for Advancing Translational Sciences (NCATS), 2009)
Values joined by “and” are separate entries in the source; they are usually repeats but may differ in a detail not shown here. Equal values may be shown once. Out of some 270,000 compounds screened, about 620 (0.23%) were called active. The shares of active, inactive and inconclusive entries below differ from those in the screen. The call rests on the fitted dose curve; in most records, active means well fitted inhibition curve with a large enough effect in the polarisation, with a control signal flat (not every such curve was filed as active); inconclusive means small, poorly fitted or top-dose-only effect, or effect the other way, or a change in a side signal; inactive means no such curve, though single readings can be large or run the other way; the % refers to the polarisation. Where the call is inconclusive, the potency comes from a doubtful curve fit. A note “side channel” means that the fit belongs to a control or component signal, not to the main read-out.

These compounds were tested against Menin (Homo sapiens) (UniProt O00255) (assay: qHTS Assay for Inhibitors Targeting the Menin-MLL Interaction in MLL Related Leukemias: Competition With Texas Red Labeled MLL-derived Mutant Peptide). Conditions: fluorescence polarization; FP activity change, negative = inhibition: at 61.6 µM (top of the series).
UniProt O00255, sequence (O00255 whole entry, looked up): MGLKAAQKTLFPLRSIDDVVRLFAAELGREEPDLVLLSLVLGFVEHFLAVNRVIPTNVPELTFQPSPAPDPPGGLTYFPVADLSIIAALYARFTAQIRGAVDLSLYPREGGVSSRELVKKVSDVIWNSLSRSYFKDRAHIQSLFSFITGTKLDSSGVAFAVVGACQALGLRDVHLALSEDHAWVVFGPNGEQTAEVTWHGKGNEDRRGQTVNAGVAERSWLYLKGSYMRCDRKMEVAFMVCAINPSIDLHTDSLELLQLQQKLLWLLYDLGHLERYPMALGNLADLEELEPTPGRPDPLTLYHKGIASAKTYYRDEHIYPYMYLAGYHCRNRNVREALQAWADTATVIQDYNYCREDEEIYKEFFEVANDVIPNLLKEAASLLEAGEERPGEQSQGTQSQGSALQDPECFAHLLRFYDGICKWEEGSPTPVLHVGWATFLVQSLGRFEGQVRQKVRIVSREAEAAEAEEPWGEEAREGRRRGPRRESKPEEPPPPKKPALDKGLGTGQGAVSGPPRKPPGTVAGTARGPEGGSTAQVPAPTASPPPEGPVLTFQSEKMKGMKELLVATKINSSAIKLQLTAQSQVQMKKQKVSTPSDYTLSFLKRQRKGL
Potency means the concentration at half of the fitted maximal effect; tags describe the fitted curve by direction and shape or compound fluorescence and quenching.
Wherever FP activity change, negative = inhibition is given: % of control where 0% means no effect.

Potency, inconclusive:
CCC(=NCc1ccco1)c1c(C(F)(F)F)[nH]n(-c2nc3ccccc3s2)c1=O 11.2 µM [quencher, side channel, partial curve], CCOC(=O)c1c(C)n(C)c2ccc(OCC(O)CNCCc3ccccc3)cc12 (configuration not stated) 3.55 µM [inhibitor, full curve], CCCC(=O)Nc1ccc(C(=O)NNC(=S)NC(=O)c2ccc(Br)o2)cc1 14.1 µM [quencher, side channel, partial curve], O=C(CN1CCN(Cc2ccccc2)CC1)Nc1ccccc1-c1ccccc1 7.08 µM [fluorescent, side channel, partial curve], COc1cccc(-c2nnc(NC(=O)c3ccc(S(=O)(=O)N4CC(C)OC(C)C4)cc3)o2)c1 (configuration not stated) 11.2 µM [quencher, side channel, partial curve], c1ccc(Cc2ccc(OCCCNC3CCCC3)cc2)cc1 1.78 µM [fluorescent, side channel, full curve], O=C(Nc1ccc(Cl)c(S(=O)(=O)Nc2ccccc2Cl)c1)c1cccs1 39.8 µM [quencher, side channel, single point], NS(=O)(=O)c1ccc(CNC(=O)/C=C/c2ccccc2)cc1 10 µM [inhibitor, partial curve], Cc1nc(SCC(=O)N2CCCc3ccccc32)c2oc3ccccc3c2n1 0.631 µM [fluorescent, side channel, partial curve, poor fit], CCN1/C(=C/c2ccc3cc(C)ccc3[n+]2C)Sc2ccc3sccc3c21 12.6 µM [fluorescent, side channel, partial curve], COc1ccc(NC(=O)c2cc3ccc(O)cc3o/c2=N\O)cc1 17.8 µM [quencher, side channel, partial curve], O=C1C=CC2=C3c4cc(O)c(O)cc4CC3(O)COC2=C1O (configuration not stated) 31.6 µM [quencher, side channel, single point] and 10 µM [quencher, side channel, partial curve], Cc1cccc(N2CCN(C(=O)CCNC(=O)Cn3ccc4ccccc4c3=O)CC2)c1C 14.1 µM [fluorescent, side channel, partial curve], Cc1ccc(NC(=O)CN(C)Cc2nc3c(Br)cc(Br)cc3c(=O)[nH]2)cc1 31.6 µM [quencher, side channel, single point], Cc1ccc(SCCC(=O)Nc2cccc(N(C)S(C)(=O)=O)c2)cc1 22.4 µM [quencher, side channel, single point], CCC(C)(C)NC(=O)COc1ccc(OCc2ccccc2)cc1 10 µM [fluorescent, side channel, partial curve], CC1Cc2ccccc2N1C(=O)CSc1nnc(Cc2ccccc2)n1CCc1ccccc1 (configuration not stated) 7.94 µM [fluorescent, side channel, full curve, poor fit], Cc1ccc2nc(N(CCCN(C)C)C(=O)c3ccc(S(=O)(=O)N4CCOCC4)cc3)sc2c1 17.8 µM [fluorescent, side channel, partial curve], COC(C(=O)Nc1ccc(S(=O)(=O)Nc2cccc3ccccc23)cc1)c1ccccc1 (configuration not stated) 5.01 µM [quencher, side channel, full curve, poor fit], COCCCNC(=O)CN(Cc1ccccc1)S(=O)(=O)c1ccccc1 28.2 µM [fluorescent, side channel, partial curve], Cc1onc(-c2c(F)cccc2Cl)c1C(=O)NNC(=O)C1CCN(Cc2ccccc2)CC1 39.8 µM [inhibitor, single point], CCO[C@@H]1OC(C(=O)N2CCN(Cc3ccc4c(c3)OCO4)CC2)=C[C@H](c2ccc(Br)cc2)[C@H]1CCCO 2.24 µM [fluorescent, side channel, full curve], N[C@H](Cc1ccc(O)c(O)c1)C(=O)O 39.8 µM [quencher, single point], CCNc1ccc2noc3c2c1C(=O)c1ccccc1-3 25.1 µM [fluorescent, side channel, partial curve], Cc1ccccc1SCC(=O)Nc1ccc(N2CCOCC2)cc1 28.2 µM [quencher, side channel, single point], Cc1cc(N/N=C/c2ccc([N+](=O)[O-])o2)nc2ccccc12 10 µM [quencher, side channel, partial curve], O=C(CCc1nc2ccccc2c(=O)[nH]1)Nc1ccc(F)c([N+](=O)[O-])c1 22.4 µM [quencher, side channel, single point], Cc1oc2cc(O)ccc2c(=O)c1Oc1ccc2ccccc2c1 28.2 µM [quencher, side channel, single point], COc1cc(/C=N/Nc2ccc(Cl)c(C(=O)O)c2)ccc1OC(=O)c1cccs1 17.8 µM [quencher, side channel, partial curve], Cc1cc(C)nc(/N=C(\N)Nc2ccc(OCc3ccccc3)cc2)n1 3.16 µM [inhibitor, full curve], COCCCNC(=O)c1ccc(CSCc2ccc(C)cc2)o1 14.1 µM [fluorescent, side channel, partial curve], Cc1ccc(C(=O)N/N=C/c2cccc(OC(=O)/C=C/c3ccco3)c2)cn1 35.5 µM [quencher, side channel, single point], Nc1ccc(N(CCO)CCO)cc1 35.5 µM [fluorescent, side channel, single point], CC1(C)CC(=O)C(C#N)=C(NCCCO)C1 35.5 µM [inhibitor, single point], O=c1[nH]cnc2c1ncn2Cc1ccc([N+](=O)[O-])cc1 39.8 µM [inhibitor, single point], Cc1cc([N+](=O)[O-])c2c(c1C)C1C=CCC1C(c1ccccn1)N2 (configuration not stated) 17.8 µM [quencher, side channel, partial curve], NNc1nc2c(Cl)ccc(Cl)c2s1 14.1 µM [quencher, side channel, partial curve], O=C(COC(=O)/C=C/c1ccccc1Cl)NCCNC(=O)COC(=O)/C=C/c1ccccc1Cl 28.2 µM [fluorescent, side channel, single point], CN1CC=C2C(C#N)=C(N)C(C#N)(C#N)[C@H](c3cccs3)[C@H]2C1 8.91 µM [inhibitor, single point], COc1ccc(C(=O)CSc2nnc(COc3ccc(C#N)cc3)n2-c2ccccc2)cc1 20 µM [inhibitor, partial curve], CCN(CC)c1nc(Oc2ccc(C(=O)OC)cc2)nc(N2CCOCC2)n1 15.8 µM [fluorescent, side channel, partial curve], O=C(Nc1ccccc1O)c1ccc2c(c1)C(=O)N(N1C(=O)c3ccccc3C1=O)C2=O 25.1 µM [quencher, side channel, partial curve], COc1ccc(NC(=O)C2CCN(S(=O)(=O)c3cccc4nonc34)CC2)c(OC)c1 50.1 µM [quencher, side channel, partial curve, poor fit], COc1cccc(C(=O)COc2cccc(NC(=O)c3cccc([N+](=O)[O-])c3)c2)c1 8.91 µM [quencher, side channel, partial curve], Cc1cc(Br)ccc1OCCOCCN1CCCC1 31.6 µM [quencher, side channel, single point]

Potency, inactive:
Cc1ccc(C2=NN=C(NC(=O)CSc3nnc4c5ccccc5n(C)c4n3)SC2)cc1, COc1cc(/C=N\NC(=O)c2ccc(Cn3nc([N+](=O)[O-])c(Cl)c3C)o2)ccc1O, CC(=O)O[C@H]1[C@H](C)OC=C[C@@H]1OC(C)=O, CC(=O)C[C@@H](c1ccccc1)c1c(O)c2ccccc2oc1=O, COC(=O)c1cc(OC)c(OC)cc1NC(=O)CN1CCCCC1, COc1ccc(CN(C)CC(=O)Nc2ccc(N3CCOCC3)cc2)cc1OC, O=C(Nc1ccccc1)c1cnc2ccccc2n1, C=C(C)C(=O)Nc1ccc(OC(F)(F)C(F)F)c(NC(=O)C(=C)C)c1, Cc1ccc(N(CC(O)CN2CCCCC2)S(=O)(=O)c2ccc(C)cc2)cc1 (configuration not stated), O=C(NC1CCCC1)O[C@@H]1C(=O)c2cc(Br)ccc2O[C@H]1c1ccc2c(c1)OCO2

FP activity change, negative = inhibition, inactive:
CC#CCN1c2ccccc2[C@]23C[C@@H](C(=O)OC)N(S(=O)(=O)c4ccc(Br)cc4)C2=NC(C(=O)OC)=C(C(=O)OC)[C@H]13 -2.69% [at 11.7 µM], CC12C=C(/C=C/c3ccc(F)cc3)C(C)(C1)C(c1ccc(F)cc1)CC2=O (configuration not stated) 10.4% [at 11.7 µM]
